Experimental data from PubChem BioAssay AID602310 (National Center for Advancing Translational Sciences (NCATS), 2012).
The whole screen tested about 410,000 compounds, of which about 310 (0.076%) were called active. Inconclusive means that the source gave no clear call. Such entries were picked first, then a sample of the others. The call rests on the fitted dose curve; in most records, active means well fitted curve in the direction sought with a large enough effect; inconclusive means small, poorly fitted or top-dose-only effect; inactive means flat fitted curve, though single readings scatter. Where the call is inconclusive, the potency comes from a doubtful curve fit.

biological target: DNA dC->dU-editing enzyme APOBEC-3G (Homo sapiens) (UniProt Q9HC16); assay: qHTS for Inhibitors of Vif-A3G Interactions: qHTS; settings: HeLa A3G-eYFP + Vif (tagged APOBEC3G with the HIV-1 protein that degrades it), YFP fluorescence, overnight; series mostly up to 46.1 µM; further: nearly all actives have a fitted effect of over 60% in size
Chain of UniProt Q9HC16 (Q9HC16 whole entry, looked up): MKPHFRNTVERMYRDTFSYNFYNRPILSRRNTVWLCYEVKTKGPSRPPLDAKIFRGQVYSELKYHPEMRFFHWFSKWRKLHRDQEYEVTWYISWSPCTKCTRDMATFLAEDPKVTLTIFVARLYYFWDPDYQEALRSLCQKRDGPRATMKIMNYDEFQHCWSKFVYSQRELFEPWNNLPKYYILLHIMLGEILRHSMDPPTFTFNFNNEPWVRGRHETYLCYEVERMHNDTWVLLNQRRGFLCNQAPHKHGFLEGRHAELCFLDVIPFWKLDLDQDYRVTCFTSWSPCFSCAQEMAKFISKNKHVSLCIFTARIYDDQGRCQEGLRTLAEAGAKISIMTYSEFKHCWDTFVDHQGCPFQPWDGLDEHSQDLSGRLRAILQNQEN
Procedure, shortened: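 Read-out is eYFP fluorescence (Ex 488/Em 500-530) from Vif-expressing HeLa A3G-eYFP cells; more signal means A3G escaped Vif-mediated degradation. Cells plated overnight, compound pinned in, incubated overnight at 37 deg C.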
Potency means the concentration at half of the fitted maximal effect; tags describe the fitted curve by direction and shape.

SMILES	Potency
C[C@H](CO)N1C[C@H](C)[C@@H](CN(C)C(=O)c2cnccn2)Oc2cc(C#CCC3CCCC3)ccc2S1(=O)=O	inactive
Cc1ccc(Cl)cc1N1CCN(CCNC(=O)Nc2ccccc2Cl)CC1	inactive
Cc1cccc(N=C2NC(=O)/C(=C/c3cccn3C)S2)c1C	inconclusive: 11.2 µM [inhibitor, partial curve, poor fit]
Cc1cc(C)cc(NC(=S)/C(=C(\[O-])c2ccc(Cl)cc2Cl)[n+]2ccccc2)c1	inactive
O=[N+]([O-])c1cnc(Sc2ccncn2)c([N+](=O)[O-])c1	inconclusive: 35.5 µM [inhibitor, single point]
COC(=O)c1c(C)oc2ccc(NS(=O)(=O)c3cc(OC)ccc3OC)cc12	inconclusive: 11.2 µM [inhibitor, partial curve, poor fit]
O=C(N/N=C/c1cccnc1)c1ccc([N+](=O)[O-])cc1Cl	inactive
O=C1C=CC(O)C2(CO)OC12 (stereo not drawn)	inconclusive: 35.5 µM [inhibitor, single point]
COc1ccc2nc(NC(=O)c3cccc(-c4cc5ccccc5oc4=O)c3)sc2c1	inconclusive: 10 µM [inhibitor, partial curve, poor fit]
O=C(N/N=C/c1ccc(O)cc1)c1cc(-c2ccccc2)nc2ccccc12	inconclusive: 2.82 µM [inhibitor, full curve]
Cc1noc(C)c1COc1ccc(C(=O)OCC(=O)N2c3ccccc3NC(=O)C2(C)C)cc1	inconclusive: 35.5 µM [inhibitor, single point]
Cc1ccccc1OC(=O)CSc1nnc(-c2ccc(F)cc2)o1	inactive
CN(C)CCCN(C(=O)c1cc(Cl)sc1Cl)c1nc2cc3c(cc2s1)OCO3	inactive
C/C(=N\NC(=S)Nc1c(C)cccc1C)c1cc2ccccc2o1	inactive
CCc1ccc(C(=O)Cn2ncc(Cl)c(Cl)c2=O)cc1	inconclusive: 7.08 µM [inhibitor, partial curve, poor fit]
COc1ccc(OC)c(NS(=O)(=O)c2ccc(NC(C)=O)cc2)c1	inconclusive: 25.1 µM [inhibitor, single point]
O=c1[nH]c(=O)n([C@@H]2O[C@H](CO)[C@@H](O)[C@H]2O)cc1F	inconclusive: 2.24 µM [inhibitor, full curve, poor fit]
Cc1cc2nc(/C(C#N)=C\c3ccc(-c4ccccc4C(=O)O)o3)[nH]c2cc1C	inactive
Cc1nnc(Nc2ccc3c(c2)ncn3C)c2ccccc12	inconclusive: 35.5 µM [inhibitor, single point]
CCOc1ccc(CNCc2c(C(=O)O)n(Cc3ccc(C)cc3)c3cc(C)ccc23)cc1	inconclusive: 31.6 µM [inhibitor, partial curve, poor fit]
CC(OC(=O)CC1CCCC1)C(=O)Nc1ccc(S(N)(=O)=O)cc1 (stereo not drawn)	inactive
CCOc1ccc(NC(=O)c2cnn3c2NC(c2cccc(OC)c2)=CC3c2ccccc2)cc1 (stereo not drawn)	inconclusive: 15.8 µM [inhibitor, single point]

SMILES	Potency
COc1ccc(C(=O)N/N=C/c2ccccc2OC(=O)c2ccccc2)cc1	inconclusive: 10 µM [inhibitor, partial curve, poor fit]
O=C(CCS(=O)(=O)c1ccc(F)cc1)Nc1nnc(-c2ccco2)o1	inconclusive: 35.5 µM [inhibitor, single point]
CCOc1ccccc1C(=O)Nc1c(C(=O)Nc2ccc(F)cc2)oc2ccccc12	inconclusive: 0.562 µM [inhibitor, full curve, poor fit]
COc1ccc(NC(=O)C2(C)Cc3c(-c4cccc(NC(C)=O)c4)ccnc3O2)cc1 (stereo not drawn)	inconclusive: 1.58 µM [inhibitor, full curve, poor fit]
O=Cc1ccc(Sc2nnc(-c3ccccc3)o2)c([N+](=O)[O-])c1	inconclusive: 35.5 µM [inhibitor, single point]
CC(/C=C1\SC(=S)N(NC(=O)c2cccc(O)c2)C1=O)=C\c1ccccc1	inconclusive: 15.8 µM [inhibitor, single point]
COc1ccc(/C=N/NC(=O)COc2ccccc2-c2ccccc2)cc1	inconclusive: 0.562 µM [inhibitor, full curve, poor fit]
COc1ccc(-c2cc(C(=O)Nc3ccc(S(=O)(=O)Nc4onc(C)c4C)cc3)c3ccccc3n2)cc1OC	inactive
Cc1ccc(C(=O)N/C(=C\c2ccc(-c3ccc(Br)cc3)o2)C(=O)NCCCN(C)C)cc1	inconclusive: 35.5 µM [inhibitor, single point]
N#Cc1cn(-c2ccccc2)nc1C(=O)c1ccccc1	inconclusive: 11.2 µM [inhibitor, partial curve, poor fit]
O=C(NC1CCCc2ccccc21)c1cccc(S(=O)(=O)N2CCN(c3ccccc3)CC2)c1 (stereo not drawn)	inactive
O=C(Cn1ccc2cc(S(=O)(=O)N3CCCCC3)ccc21)NCc1cccc(Cl)c1	inconclusive: 25.1 µM [inhibitor, single point]
Cc1cccc(N2CCN(C(=S)c3ccc4c(c3)OCO4)CC2)c1	inconclusive: 1.78 µM [inhibitor, full curve, poor fit]
Cc1cc(SCc2ccccc2C)nc(=O)[nH]1	inactive
C/C(CC(=O)NCc1ccco1)=N\NC(=O)COc1ccc(Cl)cc1Cl	inconclusive: 12.6 µM [inhibitor, partial curve, poor fit]
CCN(CC)c1ccc(/C=N/NC(=O)c2ccco2)cc1	inconclusive: 3.55 µM [inhibitor, partial curve, poor fit]
CCCNC(=O)c1ccccc1NC(=O)c1ccccc1N(C)S(=O)(=O)c1ccccc1	inconclusive: 12.6 µM [inhibitor, single point]
Cc1ccc(NC(=S)NCC2CCCO2)cc1 (stereo not drawn)	inactive
CN1C(=O)/C(=C\C(=O)c2cccs2)c2ccccc21	inactive
CCCOc1ccc(-c2nc(SC)[nH]c(=O)c2C#N)cc1OC	inactive
O=C(CNC(=O)c1ccccc1Cl)N/N=C/c1ccc2c(c1)OCO2	inconclusive: 20 µM [inhibitor, single point]
